According to PubChem BioAssay (NCATS):
The shares of active, inactive and inconclusive entries below differ from those in the screen. Potencies beside an inconclusive call are fits to weak or partial responses and may not hold up. Active and inactive are the calls of the source. Calls come from the whole dose curve; as a rule, active = well fitted inhibition curve with a large enough effect; inconclusive = small, poorly fitted or top-dose-only effect; inactive = no such curve, though single readings can be large or run the other way.

Assay: qHTS to identify inhibitors of the type 1 interferon - major histocompatibility complex class I in skeletal muscle: primary screen against the NCATS Mechanism Interrogation Plate v5.0 (MIPE) Libary (AID 1347411); note: nearly all actives have a fitted effect of over 65% in size;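 for activity change, negative = inhibition: plate controls were vehicle for no effect and reference inhibitor for full effect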
Details: iHSKM cells + IFN-b, HiBiT-tagged MHC-I luminescence, 24 h; activity change, negative = inhibition: at 45.8 µM (top of the series)
From the text: Assay Submitter (PI): Travis B. Kinder Ph.D. & James Inglese Ph.D.
Assay Development and Screening Technology Laboratory (ADST)
National Center for Advancing Translational Sciences (NCATS), Rockville, MD
National Institute of Health (NIH), Bethesda, Maryland
Idiopathic inflammatory myopathies, collectively referred to as myositis, are a group of rare autoimmune diseases characterized by skeletal muscle inflammation, weakness, and usually accompanied by systemic pathologies of the skin, lungs, or vasculature. Current immunosuppressive therapies and glucocorticoids are often not curative and are accompanied by harsh side effects, especially in children with juvenile myositis. We initiated a drug repurposing and development program to identify more targeted, less toxic therapeutics to treat myositis. Although its cause is not known, muscle from a subset of patients have an abundance of the inflammatory type 1 interferon (IFN) and a down-stream product major histocompatibility complex class I (MHC class I), which are both thought to contribute to damage and weakness. We conducted quantitative high throughput screening on 6,576 compounds (4,679 unique) through a series of cell-based assays to identify those that inhibit the IFN-stimulated expression of MHC class I in muscle precursor cells (myoblasts). The compound identification and evaluation strategy utilized a primary screen with reporter-tagged MHC class I in genome-engineered myoblasts, ATP content counter screen for viability, HLA-ABC immunofluorescence secondary screen, and HLA-B RT-qPCR tertiary screen.
The primary screen utilized CRISPR/Cas9 genome-engineering of immortalized human myoblasts, C25cl48, where a pro-luminescent reporter HiBit was fused to the C-terminus of endogenous MHC class I allele HLA-B*08:01 (HLA-B HiBit myoblasts). HiBit is an 11 amino acid fragment of NanoLuc luminescent reporter (Promega Corporation), and when complexed to the larger LgBit fragment, the reconstituted enzyme produces light in the presence of furimazine substrate (Schwinn et al., 2018). Briefly, HLA-B HiBit myoblasts were plated into 1536-well plates, treated with 4.0 ng/ml human IFN-beta and 2,480 compounds from the NCATS Mechanism Interrogation Plate v5.0 (MIPE5.0) in an 11-point, 1:3 titration with a high final concentration of 46 uM. After 24 hrs of treatment, cells were assayed by Nano-Glo HiBiT Lytic Detection System (Promega) and luminescence measured by a ViewLux 1430 Ultra HTS (Perkin Elmer).
Schwinn MK, Machleidt T, Zimmerman K, Eggers CT, Dixon AS, Hurst R, Hall MP, Encell LP, Binkowski BF, Wood K V. 2018. CRISPR-Mediated Tagging of Endogenous Proteins with a Luminescent Peptide. ACS Chem Biol 13:467-474. doi:10.1021/acschembio.7b00549
PROTOCOL TABLE (as described by Inglese et al., 2007)
SEQUENCE No. (e.g., 1, 2, 3, etc.); […] (e.g., Cells, Incubation, Reagent, etc.); VALUE; DESCRIPTION
1a; Cells; 5 uL; Use a Multidrop Combi (Thermo Scientific) to seed 300 cells/well into 24 Greiner 1536 well white/solid bottom, high base, TC plates in 5 ul/well of iHSKM growth medium (GM) without dexamethasone into columns 1+2. Add metal lids with gas-exchange holes
1b; Cells; 5 uL; Use a Multidrop Combi (Thermo Scientific) to seed 300 cells/well into 24 Greiner 1536 well white/solid bottom, high base, TC plates in 5 ul/well of iHSKM GM without dexamethasone + 4 ng/ml IFN-b into columns 3 - 48. Add metal lids with gas-exchange holes
2; Incubate; 1 hr; Incubate at 37 C, 5% CO2, 95% RH
3; Compounds; 23 nl; Use Pin Tool (Wako) to transfer DMSO control, ruxolitinib IFN-b inhibitor control [High Concentration = 80 uM final, 16-pt, 1:2 in duplicate], and library compounds in DMSO
4; Incubate; 24 hrs; Incubate at 37 C, 5% CO2, 95% RH
5; Dispense; 2.5 ul; Use BioRAPTR FRD (Beckman Coulter) to add HiBit lytic reagent
6; Incubate; 10 min; Incubate in the dark at ambient temperature for lysis
7; Detector; 5 sec; Measure luminescence with ViewLux 1430 Ultra HTS (Perkin Elmer). […]
Potency is the fitted concentration of half-maximal effect; tags give direction and shape of the fitted curve.

SMILES | Potency | activity change, negative = inhibition
CNC(=O)c1cccc(-c2ccc3c(N4CCOC[C@@H]4C)nc(N4CCOC[C@@H]4C)nc3n2)c1 | inconclusive: 0.186 µM [inhibitor, full curve] | –
c1ccc(Cn2c(-c3ccc(OCC(C4CCNCC4)n4c(-c5ccccc5)nc5ccccc54)cc3)nc3ccccc32)cc1 (stereo not given) | inconclusive: 52.3 µM [inhibitor, single point] | –
CC(C)NC(=O)N1CC[C@H](N=C2Nc3cc(F)ccc3N(CC(F)F)c3ccc(Cl)cc32)C1 | – | inactive: -19.9% [at 8.44 µM]
CCn1c(=O)c(-c2ccc(-c3cncs3)cc2Cl)cc2cnc(Nc3ccc(N4CCN(C)CC4)cc3)nc21 | inconclusive: 7.39 µM [inhibitor, partial curve, poor fit] | –
C=CC(=O)Nc1ccc2ncnc(Nc3ccc(OCc4cccc(F)c4)c(Cl)c3)c2c1 | active: 10.4 µM | –
COc1c(OCCCN2CCOCC2)ccc2c3n(c(=NC(=O)c4cnc(N)nc4)nc12)CCN3 | inconclusive: 0.0535 µM [inhibitor, full curve] | –
Nc1ncnc2c1ncn2[C@@H]1O[C@H](CO)C[C@H]1O | inactive | –
Nc1nc(OCc2cc(Br)cs2)c2[nH]cnc2n1 | inconclusive: 29.4 µM [inhibitor, single point] | –
O=c1c(-n2ccnn2)c[nH]n1-c1cc(N2CCOCC2)ncn1 | inconclusive: 2.94 µM [inhibitor, full curve] | –
O=C(NCCCNC(=O)c1ccc[nH]c1=O)c1cc(-c2ccccc2)on1 | inconclusive: 11.7 µM [inhibitor, partial curve] | –
NCC1CCN(c2nccc(-c3ccc4ccccc4c3)n2)CC1 | inconclusive: 52.3 µM [inhibitor, single point] | –
CC(C)COCC(CN(Cc1ccccc1)c1ccccc1)N1CCCC1 (stereo not given) | inconclusive: 29.4 µM [inhibitor, single point] | –
C[C@@H]1COCCN1c1cc(C2(S(C)(=N)=O)CC2)nc(-c2ccnc3[nH]ccc23)n1 (stereo not given in full) | inconclusive: 16.5 µM [inhibitor, partial curve] | –
CON(C)C(=O)N1N=C(c2cc(F)ccc2F)S[C@@]1(CCCN)c1ccccc1 | inactive | –
C[C@@H]1CCN(C(=O)CC#N)C[C@@H]1N(C)c1ncnc2[nH]ccc12 | inconclusive: 0.93 µM [inhibitor, full curve] | –
Cc1nc2ccc(C(=O)N3CCC4(CC3)CC(=O)c3c(cnn3C(C)C)C4)cc2[nH]1 | inactive | –
Cc1c(NC(=O)c2cc(C(N)=O)nc3cc(F)ccc23)c(C(F)(F)F)nn1Cc1ccc(C#N)cc1 | inconclusive: 29.4 µM [inhibitor, single point] | –
Cc1[nH]c(/C=C2\C(=O)Nc3ccc(F)cc32)c(C)c1C(=O)NC[C@H](O)CN1CCOCC1 | inconclusive: 16.5 µM [inhibitor, partial curve] | –
COc1cc2ncnc(Oc3cccc(NC(=O)Nc4cc(C(C)(C)C(F)(F)F)on4)c3)c2cc1OC | inconclusive: 2.08 µM [inhibitor, full curve] | –
CCOc1cc2ncc(C#N)c(Nc3ccc(OCc4ccccn4)c(Cl)c3)c2cc1NC(=O)/C=C/CN(C)C | active: 4.66 µM | –

SMILES | Potency | activity change, negative = inhibition
CCN1CCN(Cc2ccc(NC(=O)c3ccc(C)c(NC(=O)c4cncc(-c5cccs5)c4)c3)cc2C(F)(F)F)CC1 | active: 2.94 µM | –
CCc1cc(C(N)=O)ccc1-n1nc(C(C)C)c2c(-n3cnc(-c4cnn(C)c4)c3)ccnc21 | inconclusive: 1.31 µM [inhibitor, full curve, poor fit] | –
C=C1C(=CC=C2CCC[C@]3(C)[C@@H]([C@H](C)C=C[C@H](C)C(C)C)CC[C@@H]23)C[C@@H](O)C[C@@H]1O | inconclusive: 29.4 µM [inhibitor, partial curve] | –
OC(c1ccc(-c2ccc(CN3CCN(Cc4ccncc4)CC3)cc2)c(F)c1)(C(F)(F)F)C(F)(F)F | inconclusive: 10.4 µM [inhibitor, full curve, poor fit] | –
Cc1c(F)ccc(C(=O)Nc2cc([N+](=O)[O-])ccc2N2CCN(C)CC2)c1Cl | inactive | –
C[C@@H](Nc1ncnc2[nH]c(-c3ccc(O)cc3)cc12)c1ccccc1 | inconclusive: 26.2 µM [inhibitor, partial curve] | –
O=C(C1CC1)N1CC[C@@H](Cc2n[nH]c(=O)n2-c2ccc(-c3ccc4occc4c3)cc2)C1 | inactive | –
Cc1ccc(-c2ccc3c(ccc4sc5c(c43)NC[C@@H](C)NC5=O)n2)cn1 | active: 18.6 µM | –
COc1cc(N2CCN(C)CC2)ccc1Nc1nccc(-c2cn(C)c3cnccc23)n1 | inconclusive: 41.5 µM [inhibitor, single point] | –
COc1cc(N2CCC(N)CC2)ccc1Nc1ncc(Cl)c(-c2c[nH]c3ccccc23)n1 | inconclusive: 3.7 µM [inhibitor, partial curve, poor fit] | –
O=C(CCCCCCC(=O)Nc1cccnc1)NO | inconclusive: 8.29 µM [inhibitor, partial curve] | –
CC(=O)O[C@]1(C(C)=O)CC[C@H]2[C@@H]3C=C(Cl)C4=CC(=O)[C@@H]5C[C@@H]5[C@]4(C)[C@H]3CC[C@@]21C | inactive | –
CC(C)c1cc(C(=O)N2Cc3ccc(CN4CCN(C)CC4)cc3C2)c(O)cc1O | inconclusive: 0.131 µM [inhibitor, full curve] | –
COc1cc(C)c(Sc2cnc(NC(=O)c3ccc(CNC(C)C(C)(C)C)cc3)s2)cc1C(=O)N1CCN(C(C)=O)CC1 (stereo not given) | inconclusive: 33 µM [inhibitor, partial curve] | –
C=CC(=O)Nc1cccc(Nc2nc(Nc3ccc(Oc4ccnc(C(=O)NC)c4)cc3)ncc2F)c1 | active: 18.6 µM | –
FC(F)(F)c1ccc(/C=C/c2nc(COc3ccc(CCCCn4ccnn4)cc3)co2)cc1 | inactive | –
CCOC(=O)[C@@H](N)Cc1ccc(-c2cc(O[C@H](c3ccc(Cl)cc3-n3ccc(C)n3)C(F)(F)F)nc(N)n2)cc1 | active: 9.3 µM | –
CCn1nc(C2CCN(C(=O)CCO)CC2)nc1-c1cnc(N)c(-c2nnc(C(C)(C)C)o2)n1 | inconclusive: 0.093 µM [inhibitor, full curve, poor fit] | –
c1ccc(-c2ccc(CNc3nc(-c4ccccn4)nnc3-c3ccccc3)cc2)cc1 | inconclusive: 2.08 µM [inhibitor, full curve] | –
CN[C@H]1CC[C@@H](c2ccc(Cl)c(Cl)c2)c2ccccc21 | inconclusive: 26.2 µM [inhibitor, single point] | –
